Results published in PubChem BioAssay (NCATS).
“And” between values parts separate entries of the source, which are not always exact repeats. Equal entries are not always repeated. This list was built around the results that the source calls inconclusive (neither active nor inactive); the mix of calls is not that of the screen. For part of these data: Potencies beside an inconclusive call are fits to weak or partial responses and may not hold up. The source holds several records for some structures; these can differ, active in one and inactive in another. The source made the active and inactive calls. Unless noted, calls follow the shape of the dose curve; as a rule, active = well fitted curve in the direction sought with a large enough effect; inconclusive = small, poorly fitted or top-dose-only effect, or another doubt; inactive = no such curve, though single readings can be large; an effect the other way counts as inactive or inconclusive.

Key:
[1] = qHTS assay for small molecule antagonists of the retinoid-related orphan receptor gamma (ROR-gamma) signaling pathway - cell viability counter screen (AID 720652; active = well fitted curve in the direction sought with a large enough effect in the repeat runs; inconclusive = weak or mixed curves; inactive = no such curve, though single readings can be large; an effect the other way counts as inactive or inconclusive;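 also: compound exposure lasted 16 hr before ATP read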)
Outline: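 Counter screen in CHO cells carrying TET-inducible ROR-gamma and an ROR response element-luciferase reporter; cells plated 5 hr, compound pinned, doxycycline added, then 16 hr at 37 C. Viability read as intracellular ATP by CellTiter-Glo luminescence.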

[2] = qHTS assay for measurement of the activity of small molecule inhibitors on Zika virus induced Caspase-3 activity in human iPSC derived neural progenitor cells (hNPCs) (AID 1224857); also: nearly all actives have a fitted effect of over 65% in size
Outline: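 Values are percent inhibition of virus-induced caspase-3/7 signal, scaled between uninfected cells and ZIKV-infected cells. Infection used 2 FFU/cell for 6 h after 1 h compound exposure.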

[3] = qHTS assay for measurement of the activity of small molecule inhibitors on Zika virus induced Caspase-3 activity in human astrocytoma cells (AID 1224859)
Outline: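 Compound added 1 h pre-infection; ZIKV 2 FFU/cell on SNB-19 cells, 6 h, 37 C/5% CO2. Caspase-Glo 3/7 luminescence; values as % inhibition of ZIKV-induced caspase activity.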

[4] = qHTS Screen of the MIPE 4.0 Collection Against Ewings Sarcoma (TC71) (AID 1259253); also: nearly all actives have a fitted effect of over 40% in size
Outline: (§1)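 Viability screen: 48 h incubation at 37C, 95% humidity, 5% CO2 with serially titrated compound, followed by CellTiter-Glo readout.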

[5] = qHTS Screen of the MIPE 4.0 Collection Against Ewings Sarcoma (EW8) (AID 1259255); also: nearly all actives have a fitted effect of over 35% in size
Outline: as §1

[6] = qHTS for Activators of Parkin Expression: LOPAC Validation Assay (NLuc Reporter) (AID 720572)
Outline: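 Neuronal cells with a Parkin promoter-driven FLuc/NLuc coincidence reporter were treated 24 h at 37 C in 7-point dose response (LOPAC). NLuc luminescence read after FLuc; signals normalized to DMSO and positive control (100%).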

[7] = qHTS for Activators of Parkin Expression: LOPAC Validation Assay (FLuc Reporter) (AID 720573)
Outline: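 A neuronal cell line harbouring FLuc and NLuc reporters behind the Parkin promoter was exposed to compounds for 24 h. Firefly luciferase signal, measured after 10 min with detection reagent, was scaled to DMSO and positive-control wells.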

[8] = qHTS assay for cell viability of the p53RE-bla HCT-116 cell line (AID 743292); also: nearly all actives have a fitted effect of over 55% in size
Outline: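 Luminescent ATP quantitation (CellTiter-Glo) served as the viability read-out; reagent was added after 16 h compound exposure at 37 C and read after 30 min at room temperature. Cells: p53RE-bla HCT-116, 4,000 per well.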

[9] = qHTS Screen of the MIPE 4.0 Collection Against Ewings Sarcoma (RDES) (AID 1259252); also: nearly all actives have a fitted effect of over 35% in size
Outline: as §1

[10] = target: DNA polymerase eta (Homo sapiens) (UniProt Q9Y253); experiment: qHTS for Inhibitors of Polymerase Eta: Confirmatory Assay for Cherry-picked Compounds (AID 720502); details: Pol eta primer extension, TAMRA/BHQ fluorescence, 10 min
Outline: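 Readout: TAMRA dequenching, ex 525/em 598 nm, read at 0 and 10 min. Enzyme: 10 nM human Pol eta, preincubated with compound 15 min RT. Substrate: 50 nM final annealed primer/reporter/template duplex.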

[11] = qHTS assay for small molecule agonists of the antioxidant response element (ARE) signaling pathway measured by Nrf2-dependant transcriptional activity - cell viability counter screen (AID 720653; active = well fitted curve in the direction sought with a large enough effect in the repeat runs; inconclusive = weak or mixed curves; inactive = no such curve, though single readings can be large; an effect the other way counts as inactive or inconclusive); details: ARE-bla HepG2 viability, CellTiter-Glo ATP luminescence, 16 h; max response: stronger effect = lower value
Outline: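 ARE-bla HepG2 cells treated with compounds for 16 h at 37C; this counter screen measures viability as intracellular ATP by CellTiter-Glo luminescence after 30 min at room temperature.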

[12] = qHTS Assay for Identifying Gametocytocidal Compounds (AID 743244); details: P. falciparum 3D7 stage III-V gametocytes, alamarBlue, 72 h; max response: stronger effect = lower value
Outline: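 Stage III–V gametocytes of P. falciparum 3D7 were seeded at 20,000 cells/well onto pre-dispensed compounds. After 72 h, 37 °C, 5% CO2, alamarBlue was added for another 24 h.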
Potency is read from the fitted curve at half-maximal effect; tags tell the direction and shape of the fitted curve.

Sequence of UniProt Q9Y253 (Q9Y253 whole entry, looked up): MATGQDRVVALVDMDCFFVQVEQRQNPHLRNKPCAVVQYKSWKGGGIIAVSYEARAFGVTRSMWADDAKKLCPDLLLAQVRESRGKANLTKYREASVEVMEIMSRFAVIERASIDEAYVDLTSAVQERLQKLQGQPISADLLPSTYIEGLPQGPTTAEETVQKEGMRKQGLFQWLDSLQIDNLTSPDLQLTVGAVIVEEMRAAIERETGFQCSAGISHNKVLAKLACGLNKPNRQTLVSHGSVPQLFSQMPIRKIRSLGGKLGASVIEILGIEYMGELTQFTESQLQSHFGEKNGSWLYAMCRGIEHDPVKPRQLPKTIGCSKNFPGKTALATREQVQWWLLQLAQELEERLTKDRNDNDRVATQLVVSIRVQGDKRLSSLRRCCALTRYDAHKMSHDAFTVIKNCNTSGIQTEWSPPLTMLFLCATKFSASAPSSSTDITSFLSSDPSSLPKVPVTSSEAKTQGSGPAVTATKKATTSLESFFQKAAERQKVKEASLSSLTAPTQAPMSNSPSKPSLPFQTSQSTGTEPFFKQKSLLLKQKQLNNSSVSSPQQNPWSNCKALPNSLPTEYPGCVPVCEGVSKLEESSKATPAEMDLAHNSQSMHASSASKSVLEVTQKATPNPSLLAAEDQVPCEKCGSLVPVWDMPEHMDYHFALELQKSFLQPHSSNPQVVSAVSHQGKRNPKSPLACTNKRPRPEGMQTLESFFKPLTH

**Q.** Which results are given for `O=c1c(O)c(-c2ccc(O)cc2)oc2cc(O)cc(O)c12`?
**A.** Potency [1]: inconclusive: 75 µM [rising, single point]; Potency [2]: inconclusive: 20.9 µM [inhibitor, partial curve, poor fit]; Potency [3]: inconclusive: 11.8 µM [inhibitor, partial curve, poor fit]; Potency [4]: active: 18.7 µM; Potency [5]: active: 11.8 µM

**Q.** For `O=c1cc(-c2ccc(O)cc2)oc2cc(O)cc(O)c12`, which Potency [6] is on record?
**A.** The Potency was active: 16.4 µM.

**Q.** What about the Potency [7] of the same compound?
**A.** Its Potency is active: 3.26 µM.

**Q.** What about the Potency [8] of the same compound?
**A.** Its Potency is inconclusive: 70.8 µM [rising, single point].

**Q.** What about the Potency [2] of the same compound?
**A.** Its Potency is inconclusive: 16.6 µM [inhibitor, partial curve] and inconclusive: 7.94 µM [inhibitor, partial curve, poor fit].

**Q.** What about the Potency [3] of the same compound?
**A.** The Potency was inconclusive: 12.6 µM [inhibitor, partial curve, poor fit].

**Q.** And the Potency [9]?
**A.** Its Potency is active: 18.7 µM.

**Q.** What does the source list for `c1ccc2[nH]c(-c3cscn3)nc2c1`?
**A.** Potency [2]: inconclusive: 15.8 µM [inhibitor, partial curve, poor fit] and active: 16.6 µM; Potency [3]: inconclusive: 12.6 µM [inhibitor, partial curve, poor fit] and active: 16.6 µM; Potency [9]: inactive

**Q.** Which Potency [2] does the source give for `O=C1NC(=O)C(=Cc2ccc(-c3ccc(F)cc3O)o2)S1` here?
**A.** Its Potency is active: 16.6 µM.

**Q.** What about the Potency [3] of the same compound?
**A.** The Potency was active: 14.8 µM.

**Q.** And the Potency [9]?
**A.** Its Potency is inconclusive: 23.5 µM [inhibitor, single point].

**Q.** For `Cc1nc(-c2ccc(OCC(C)C)c(C#N)c2)sc1C(=O)O`, which Potency [2] is on record?
**A.** The Potency was active: 5.26 µM.

**Q.** What about the Potency [3] of the same compound?
**A.** The Potency was active: 4.18 µM and inconclusive: 7.94 µM [inhibitor, full curve, poor fit].

**Q.** And the Potency [4]?
**A.** The Potency was inconclusive: 29.6 µM [inhibitor, single point].

**Q.** Which Potency [2] does the source give for `O=C1NC(=O)C(=Cc2ccc(-c3ccc(F)cc3)o2)S1` here?
**A.** The Potency was inconclusive: 29.6 µM [inhibitor, single point].

**Q.** What about the Potency [3] of the same compound?
**A.** The Potency was inconclusive: 26.4 µM [inhibitor, partial curve, poor fit].

**Q.** What about the Potency [9] of the same compound?
**A.** The Potency was inconclusive: 33.2 µM [inhibitor, single point].

**Q.** Which Potency [2] does the source give for `O=C1C[C@@H](c2ccc(O)cc2)Oc2cc(O)cc(O)c21` here?
**A.** The Potency was active: 18.7 µM.

**Q.** And the Potency [3]?
**A.** Its Potency is inconclusive: 18.7 µM [inhibitor, single point].

**Q.** And the Potency [9]?
**A.** Its Potency is inconclusive: 20.9 µM [inhibitor, single point].

**Q.** And the Potency [5]?
**A.** Its Potency is active: 13.2 µM.

**Q.** What does the source list for `O=C1c2ccccc2-[n+]2ccc3c([nH]c4ccccc43)c21`?
**A.** Potency [2]: active: 1.05 µM; Potency [3]: inconclusive: 37.2 µM [inhibitor, single point]; Potency [5]: active: 1.18 µM

**Q.** Which Potency [2] does the source give for `O=C(C=Cc1ccc(O)cc1)c1ccc(O)cc1O` here?
**A.** The Potency was active: 1.66 µM.

**Q.** And the Potency [3]?
**A.** The Potency was active: 2.09 µM.

**Q.** And the Potency [9]?
**A.** The Potency was inconclusive: 23.5 µM [inhibitor, partial curve].

**Q.** Which Potency [2] does the source give for `CC(C)Oc1ccc2c(=O)c(-c3ccccc3)coc2c1` here?
**A.** Its Potency is inconclusive: 11.2 µM [inhibitor, full curve, poor fit] and inconclusive: 14.1 µM [inhibitor, full curve, poor fit] and active: 10.5 µM.

**Q.** And the Potency [3]?
**A.** Its Potency is inconclusive: 10 µM [inhibitor, partial curve, poor fit] and active: 10 µM and active: 11.8 µM.

**Q.** And the Potency [9]?
**A.** The Potency was inconclusive: 33.2 µM [inhibitor, single point].

**Q.** What about the Potency [4] of the same compound?
**A.** The Potency was inconclusive: 33.2 µM [inhibitor, single point].

**Q.** What does the source list for `NNc1nncc2ccccc12`?
**A.** Potency [2]: inconclusive: 18.7 µM [inhibitor, partial curve]; Potency [3]: inconclusive: 14.1 µM [inhibitor, single point] and inconclusive: 35.5 µM [inhibitor, single point]; Potency [4]: inactive; Potency [5]: inactive

**Q.** What does the source list for `O=C(O)c1cc(O)c2c(c1)C(=O)c1cccc(O)c1C2=O`?
**A.** Potency [10]: active: 75.7 µM; Potency [1]: inactive; Potency [11]: inconclusive: 35.5 µM [cytotoxic, full curve]; Potency [2]: active: 38.2 µM; Potency [3]: inconclusive: 38.2 µM [inhibitor, partial curve]; Potency [9]: inactive; Potency [4]: inactive; Potency [5]: inconclusive: 34 µM [inhibitor, partial curve, poor fit]

**Q.** What does the source list for `O=C(Nc1ccccc1-c1cn2c(CN3CCNCC3)csc2n1)c1cnc2ccccc2n1`?
**A.** Potency [12]: active: 3.72 µM; Potency [2]: active: 18.7 µM; Potency [3]: inconclusive: 29.6 µM [inhibitor, single point]; Potency [9]: inconclusive: 37.2 µM [inhibitor, single point]; Potency [5]: inconclusive: 26.4 µM [inhibitor, single point]

**Q.** With `Oc1ccc(C2=Cc3ccc(O)cc3OC2)cc1` as the compound, how does the Potency [2] read?
**A.** The Potency was inconclusive: 29.6 µM [inhibitor, single point].

**Q.** And the Potency [3]?
**A.** Its Potency is inconclusive: 16.6 µM [inhibitor, partial curve, poor fit].

**Q.** And the Potency [4]?
**A.** Its Potency is active: 3.72 µM.
